Measurements reported in the supplement of paper PMC3334620.
In all, about 33,000 sequences were measured (“E-score (-0.5 to 0.5)”: median about -0.021, highest 2% from about 0.32 on). The list shows a part of the results.

Target: T1, Zap1 (UniProt P47043)
T1 sequence: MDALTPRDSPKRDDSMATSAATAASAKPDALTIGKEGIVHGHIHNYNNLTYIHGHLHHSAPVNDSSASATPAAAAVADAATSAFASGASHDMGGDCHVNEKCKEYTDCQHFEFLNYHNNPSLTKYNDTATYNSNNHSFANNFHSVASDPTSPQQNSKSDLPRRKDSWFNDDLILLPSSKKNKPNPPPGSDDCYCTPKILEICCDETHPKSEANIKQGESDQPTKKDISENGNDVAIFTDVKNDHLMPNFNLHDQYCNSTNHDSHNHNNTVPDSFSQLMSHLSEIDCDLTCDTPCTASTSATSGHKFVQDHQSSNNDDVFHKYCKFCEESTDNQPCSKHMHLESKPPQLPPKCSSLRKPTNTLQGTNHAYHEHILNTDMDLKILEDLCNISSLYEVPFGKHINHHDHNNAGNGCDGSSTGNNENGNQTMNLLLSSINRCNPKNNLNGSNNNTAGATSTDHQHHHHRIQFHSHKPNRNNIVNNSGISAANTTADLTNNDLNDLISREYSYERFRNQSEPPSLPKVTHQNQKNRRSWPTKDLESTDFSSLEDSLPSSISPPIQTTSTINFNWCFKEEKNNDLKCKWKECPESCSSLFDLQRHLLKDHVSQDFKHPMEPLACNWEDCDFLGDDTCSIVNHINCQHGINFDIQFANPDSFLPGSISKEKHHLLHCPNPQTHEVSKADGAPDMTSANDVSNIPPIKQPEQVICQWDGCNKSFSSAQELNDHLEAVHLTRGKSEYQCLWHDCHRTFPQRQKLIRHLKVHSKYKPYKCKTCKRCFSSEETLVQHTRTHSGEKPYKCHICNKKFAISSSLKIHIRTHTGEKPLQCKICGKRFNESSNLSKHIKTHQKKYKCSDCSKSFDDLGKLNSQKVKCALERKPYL
Assay: PBM E-score (8-mer binding enrichment) (E-score (-0.5 to 0.5)); higher = stronger / more preferred TF binding; most listed sequences are background and not binding sites
Settings: protein concentration: 200 nM; construct: GST-full length
Description: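 Universal 'all 10-mer' protein binding microarrays (Agilent AMADID 015681) probed with GST-tagged S. cerevisiae TFs (full-length or DBD) made by in vitro transcription/translation (PURExpress), about 100-200 nM. Bound TF was detected with fluorescent anti-GST. Each ungapped 8-mer (which stands for itself and its reverse complement) is scored by the PBM enrichment score (E-score), a modified Wilcoxon-Mann-Whitney statistic from -0.5 to +0.5, computed with the Universal PBM Analysis Suite. Scale: above 0.35 generally sequence-specific binding.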

Row | Sequence | PBM E-score
1 | CCCCGGAC | -0.0901
2 | CACCCGGA | 0.235
3 | CCACTCAG | -0.133
4 | CTTACAGC | -0.11
5 | CAACGGAG | -0.226
6 | ATCGCCCC | -0.134
7 | CTTACTAC | -0.0448
8 | GGAGGGAC | -0.12
9 | CAGGACTG | -0.142
10 | ACTAGTGC | -0.111
11 | ACACTAAC | 0.124
12 | CACACCCA | 0.0555
13 | ATTTTTGG | 0.0429
14 | CGATAGAC | -0.0768
15 | GTCTCCAA | -0.0169
16 | CCGACGTA | -0.166
17 | CCTCCTAC | -0.0299
18 | GTACTAAA | 0.127
19 | ACGCACCC | -0.0807
20 | CTACGTTC | -0.187
21 | CTCTGTAC | -0.139
22 | ATCAGAAT | 0.0899
23 | AGCCCGCC | -0.207
24 | GAACGCTC | -0.342
25 | AGCAATCA | 0.0665

Row | Sequence | PBM E-score
26 | ATATGACC | 0.245
27 | CTTCATGA | 0.134
28 | CAGCATGG | -0.00544
29 | GAAGCCCC | -0.272
30 | GAAATACC | 0.158
31 | AGGCAGGG | -0.14
32 | AGGAGAGG | -0.195
33 | CAGCGAGC | -0.0353
34 | ATAGGAAT | 0.0437
35 | CCTATTGC | -0.0524
36 | AAATACCT | 0.128
37 | AAATTCTC | -0.0791
38 | GCATGGGA | 0.00375
39 | GATCCCAA | 0.0124
40 | CGACCTGA | 0.11
41 | GCTGTATA | -0.179
42 | ACACTGGA | -0.0566
43 | AACGCCGT | -0.093
44 | AATCAGCG | 0.099
45 | GACATACA | 0.0466
46 | ACTAACTG | 0.126
47 | CATTTGTC | 0.00204
48 | GTAGAGGA | -0.274
49 | CATGAGGG | 0.0852
50 | GCCAGAGA | -0.0759

Row | Sequence | PBM E-score
51 | ACCCTCGG | 0.329
52 | CATACTGA | 0.00678
53 | GAAGGTTA | 0.437
54 | CCCTTGAG | 0.33
55 | GCCACTGA | 0.0415
56 | ATAACTTC | 0.158
57 | AAGGAGGA | -0.291
58 | GAGCCTGA | -0.248
59 | GGAAAATA | 0.0887
60 | CCATAACG | 0.00872
61 | AACGTCTA | -0.0331
62 | AGAGAAGG | -0.204
63 | ATTGAATC | -0.158
64 | AGACTAAG | -0.0256
65 | ATTTCACG | 0.0742
66 | GAGCTTGA | -0.203
67 | CGGAACCC | 0.326
68 | ACCTGCTA | 0.0809
69 | ACTTATCC | 0.0364
70 | AGTTGAGG | 0.137
71 | GCCTGGAC | -0.195
72 | AAGGTTTC | 0.206
73 | AAATACTC | -0.0244
74 | GCGTCTAA | -0.113
75 | ACCTACCA | 0.126

Row | Sequence | PBM E-score
76 | CGAGAGGC | -0.187
77 | AGGTCGCG | 0.238
78 | CGCTAGAA | 0.019
79 | ATGGCGGG | -0.0345
80 | CGGCAGCA | -0.227
81 | TCGTGGCA | -0.207
82 | GCGCTTAA | -0.0418
83 | CGACTTCC | -0.272
84 | ATGGCAGG | -0.0316
85 | GTCCGCAA | 0.121
86 | GCCTTTCA | -0.0871
87 | GGAGTCAC | -0.113
88 | AGACAAGG | -0.0613
89 | ATGGGCGA | -0.12
90 | ACTATGAA | -0.0246
91 | CGCAGCTC | -0.176
92 | AGATGCAA | -0.0256
93 | AACAGCAG | 0.0312
94 | AACAGACA | 0.0533
95 | CAATTCCG | -0.00437
96 | GACAGACC | 0.00176
97 | ATCACGAC | -0.103
98 | GCACTTGA | -0.119
99 | CGTATCAA | -0.0422
100 | AACAATAG | -0.032

Row | Sequence | PBM E-score
101 | CTGATCAG | 0.103
102 | AGATTCTC | -0.0823
103 | ACACCTTA | 0.236
104 | ATGCGCTC | -0.119
105 | TGATTCCA | 0.0434
106 | AATGCAGG | -0.0578
107 | ACATAAGA | -0.0266
108 | ATTGTCGA | 0.019
109 | CACATGTC | -0.0103
110 | ACTACGAT | 0.0887
111 | AGTGCGCA | -0.0535
112 | CAGGAGCC | -0.164
113 | ATGCGCCG | -0.221
114 | AGGTTGGC | -0.0587
115 | GTGGCACA | -0.203
116 | AGTGTACC | 0.0741
117 | TAGCCCGA | -0.024
118 | CCGATGAA | 0.0704
119 | CTTTTTTC | 0.147
120 | GCCGGCGC | -0.063
121 | CTGGTTCC | 0.0559
122 | GATCCTGC | -0.023
123 | AGAGTCCT | -0.175
124 | TACTGCCA | 0.0605
125 | CCCGAAGC | -0.233

Row | Sequence | PBM E-score
126 | GACCCAGA | 0.11
127 | CACTTATG | 0.0769
128 | GCGCCAAC | -0.0397
129 | ATTAAAAC | 0.186
130 | CGCGGGAG | -0.239
131 | TCTTCTCA | -0.0162
132 | ACCAGAGT | 0.0585
133 | AAGATCCC | -0.17
134 | AGGCGATC | -0.235
135 | ACCGCGAT | 0.131
136 | ATTGGTGA | -0.0286
137 | CGTGGTGC | -0.0971
138 | GGATGAGA | -0.0656
139 | CCACATGC | 0.146
140 | GAGTTCAA | 0.00121
141 | ATTACACA | 0.209
142 | AAAGATTG | -0.08
143 | CGGTTTGC | 0.00586
144 | ACTTAGGG | 0.281
145 | CTGAATCC | -0.112
146 | GGGCGGCA | -0.166
147 | AGGAATCG | -0.054
148 | CCGAGCGG | 0.077
149 | AGCCTCAG | -0.118
150 | GTCATTTA | 0.0508

Row | Sequence | PBM E-score
151 | CATGGTGC | -0.147
152 | AGGGTTTG | 0.292
153 | AAGTTTAG | 0.023
154 | CACCGCGC | -0.0615
155 | ATCACACG | 0.056
156 | CGGTTTGA | 0.084
157 | ATTCTGAA | 0.13
158 | CAGGAGCA | -0.15
159 | CATCGTCC | -0.119
160 | GCGGCCGA | -0.142
161 | AAGACTGC | -0.193
162 | ACACAGCA | 0.131
163 | AGCGACTG | 0.117
164 | TAAATAGA | -0.0602
165 | CAAAAATG | 0.0301
166 | CCTGACGC | -0.219
167 | AAAGGTTG | 0.336
168 | AGGACAGG | -0.1
169 | CTATTTGA | 0.0912
170 | GAAGATAC | -0.134
171 | TAATGTCA | -0.0255
172 | CCCACCCA | 0.323
